Laboratory results taken from the supplement of paper PMC12578646, “Prodrug florfenicol amine is activated by intrinsic resistance to target Mycobacterium abscessus” (Nature Microbiology, 2025).
M. abscessus ATCC 19977 and its deletion, point and complemented mutants after 5 days of drug at 37 °C plus 24 h of resazurin. Growth in % of untreated wells at the dose given (lower = more inhibition); checkerboards give % inhibition (higher = more inhibition); IC50 from the fitted curve (lower = more potent). No active / inactive call. IC50 values come from the same 384-well curves. Growth is not capped and can exceed 100%. The direction of the checkerboard scale is read from the raw signals. Capreomycin is a mixture.

Assays:
Assay in all cases: growth relative to untreated wells; higher = more growth (less inhibition)
[1] = test system: Mycobacterium abscessus ATCC 19977 WhiB7 F24fs
Protocol: (§1)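 384-well two-fold dose series, two replicates; 5 days at 37 °C, then 24 h with resazurin; fluorescence scaled to growth and killed controls.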

[2] = test system: Mycobacterium abscessus ATCC 19977 Eis2 E120fs
Protocol: as §1

[3] = test system: Mycobacterium abscessus ATCC 19977 ΔwhiB7
Protocol: as §1

[4] = test system: Mycobacterium abscessus ATCC 19977 Eis2 Y284*
Protocol: as §1

[5] = test system: Mycobacterium abscessus ATCC 19977 Eis2 Y255*
Protocol: as §1

[6] = test system: Mycobacterium abscessus ATCC 19977 WhiB7 R76del
Protocol: as §1

[7] = test system: Mycobacterium abscessus ATCC 19977 Δeis2
Protocol: as §1

[8] = test system: Mycobacterium abscessus ATCC 19977 Eis2 Y227D
Protocol: as §1

[9] = test system: Mycobacterium abscessus ATCC 19977 WhiB7 L37P
Protocol: as §1

[10] = test system: Mycobacterium abscessus ATCC 19977 Eis2 T258R
Protocol: as §1

[11] = test system: Mycobacterium abscessus ATCC 19977 WhiB7 A51T
Protocol: as §1

[12] = test system: Mycobacterium abscessus ATCC 19977 WhiB7 T70fs
Protocol: as §1

CC[C@H]1OC(=O)[C@H](C)[C@@H](O[C@H]2C[C@@](C)(OC)[C@@H](O)[C@H](C)O2)[C@H](C)[C@@H](O[C@@H]2O[C@H](C)C[C@H](N(C)C)[C@H]2O)[C@](C)(O)C[C@@H](C)C(=O)[C@H](C)[C@@H](O)[C@]1(C)O [erythromycin]
Settings | growth [%]
[1], 0.03125 µg/mL | 105
[1], 0.0625 µg/mL | 109
[1], 0.125 µg/mL | 114
[1], 0.25 µg/mL | 104
[1], 0.5 µg/mL | 75.9
[1], 1 µg/mL | 11
[1], 2 µg/mL | -1.03
[1], 4 µg/mL | -3.1
[1], 8 µg/mL | -3.14
[1], 16 µg/mL | -3.04
[1], 32 µg/mL | -2.72
[1], 64 µg/mL | -1.36
[2], 0.03125 µg/mL | 98.9
[2], 0.0625 µg/mL | 111
[2], 0.125 µg/mL | 120.3
[2], 0.25 µg/mL | 122
[2], 0.5 µg/mL | 125
[2], 1 µg/mL | 82.2
[2], 2 µg/mL | 34.5
[2], 4 µg/mL | 4.05
[2], 8 µg/mL | 0.0559
[2], 16 µg/mL | -0.41
[2], 32 µg/mL | -2.06
[2], 64 µg/mL | -1.13
[3], 0.03125 µg/mL | 97.4
[3], 0.0625 µg/mL | 111
[3], 0.125 µg/mL | 112
[3], 0.25 µg/mL | 114
[3], 0.5 µg/mL | 85
[3], 1 µg/mL | 7.71
[3], 2 µg/mL | -2.73
[3], 4 µg/mL | -1.9
[3], 8 µg/mL | -5.83
[3], 16 µg/mL | -4.97
[3], 32 µg/mL | -4.65
[3], 64 µg/mL | -4.28
[4], 0.03125 µg/mL | 105
[4], 0.0625 µg/mL | 105
[4], 0.125 µg/mL | 113
[4], 0.25 µg/mL | 119.2
[4], 0.5 µg/mL | 106
[4], 1 µg/mL | 71.6
[4], 2 µg/mL | 21.6
[4], 4 µg/mL | 4.53
[4], 8 µg/mL | -0.0215
[4], 16 µg/mL | -1.25
[4], 32 µg/mL | -1.87
[4], 64 µg/mL | -1.52
[5], 0.03125 µg/mL | 102
[5], 0.0625 µg/mL | 107
[5], 0.125 µg/mL | 117
[5], 0.25 µg/mL | 118.9
[5], 0.5 µg/mL | 107.8
[5], 1 µg/mL | 56.6
[5], 2 µg/mL | 19.1
[5], 4 µg/mL | 1.41
[5], 8 µg/mL | -1.45
[5], 16 µg/mL | -3.08
[5], 32 µg/mL | -3.73
[5], 64 µg/mL | -2.9
[6], 0.03125 µg/mL | 103
[6], 0.0625 µg/mL | 112.5
[6], 0.125 µg/mL | 115
[6], 0.25 µg/mL | 110
[6], 0.5 µg/mL | 73.9
[6], 1 µg/mL | 6.82
[6], 2 µg/mL | -1.06
[6], 4 µg/mL | -2.74
[6], 8 µg/mL | -3.21
[6], 16 µg/mL | -2.31
[6], 32 µg/mL | -2.56
[6], 64 µg/mL | -1.48
[7], 0.03125 µg/mL | 104
[7], 0.0625 µg/mL | 104
[7], 0.125 µg/mL | 115
[7], 0.25 µg/mL | 93.4
[7], 0.5 µg/mL | 84.1
[7], 1 µg/mL | 15.8
[7], 2 µg/mL | 8.58
[7], 4 µg/mL | -2.86
[7], 8 µg/mL | -3.31
[7], 16 µg/mL | -3.55
[7], 32 µg/mL | -3.23
[7], 64 µg/mL | -2.15
[8], 0.03125 µg/mL | 103
[8], 0.0625 µg/mL | 112.6
[8], 0.125 µg/mL | 115
[8], 0.25 µg/mL | 119
[8], 0.5 µg/mL | 119
[8], 1 µg/mL | 71.4
[8], 2 µg/mL | 30.9
[8], 4 µg/mL | 5.19
[8], 8 µg/mL | 1.84
[8], 16 µg/mL | 0.105
[8], 32 µg/mL | -0.668
[8], 64 µg/mL | 0.668
[9], 0.03125 µg/mL | 108.2
[9], 0.0625 µg/mL | 107
[9], 0.125 µg/mL | 114
[9], 0.25 µg/mL | 116
[9], 0.5 µg/mL | 87.8
[9], 1 µg/mL | 16.2
[9], 2 µg/mL | 0.179
[9], 4 µg/mL | -2.18
[9], 8 µg/mL | -3.35
[9], 16 µg/mL | -2.85
[9], 32 µg/mL | -2.67
[9], 64 µg/mL | -1.76
[10], 0.03125 µg/mL | 91.3
[10], 0.0625 µg/mL | 109
[10], 0.125 µg/mL | 111
[10], 0.25 µg/mL | 108
[10], 0.5 µg/mL | 90.08
[10], 1 µg/mL | 32.7
[10], 2 µg/mL | 10.1
[10], 4 µg/mL | -0.187
[10], 8 µg/mL | -0.918
[10], 16 µg/mL | -2.636
[10], 32 µg/mL | -2.55
[10], 64 µg/mL | -1.81
[11], 0.03125 µg/mL | 106
[11], 0.0625 µg/mL | 121
[11], 0.125 µg/mL | 117.1
[11], 0.25 µg/mL | 118.77
[11], 0.5 µg/mL | 111
[11], 1 µg/mL | 23.6
[11], 2 µg/mL | 2.97
[11], 4 µg/mL | -3.02
[11], 8 µg/mL | -4.25
[11], 16 µg/mL | -3.01
[11], 32 µg/mL | -2.53
[11], 64 µg/mL | -1.76
[12], 0.03125 µg/mL | 102
[12], 0.0625 µg/mL | 104
[12], 0.125 µg/mL | 108
[12], 0.25 µg/mL | 92.8
[12], 0.5 µg/mL | 62.3
[12], 1 µg/mL | 5.36
[12], 2 µg/mL | -2.67
[12], 4 µg/mL | -5.17
[12], 8 µg/mL | -5.93
[12], 16 µg/mL | -4.77
[12], 32 µg/mL | -4.21
[12], 64 µg/mL | -2.99
